Experimental data reported in the supplement of paper PMC8183993.
Where a name gives a salt, the structure may show the parent alone. ± gives the standard deviation of the averaged measurements. Whole data set: some 3,200 compounds, median “nuclei count (viability) relative to DMSO” near 99, cut for the lowest 2% near 16. The list shows a part of the results.

System: U2OS
Assay: nuclei count (viability) relative to DMSO (% of DMSO); higher = more viable cells
Details: 10 µM; 24 h
Protocol: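 Primary image-based screen in U2OS cells: compounds at 10 uM for 24 h, then a 1 h o-propargyl-puromycin (OPP) pulse, click labelling, and high-throughput microscopy. Mean cytoplasmic OPP intensity and nuclei count were normalised to DMSO wells within each plate (DMSO = 100) and averaged over triplicate plates.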

**Q.** How did the nuclei count turn out when `C[C@]12CC[C@H]3[C@@H](CC[C@@]45O[C@@H]4C(O)=C(C#N)C[C@]35C)[C@@H]1CC[C@@H]2O` [Trilostane] was run?
**A.** The nuclei count was 100.

**Q.** With `O=C(O)CNC(=O)c1c(O)c2ccccc2n(Cc2ccccc2)c1=O` as the molecule, how does the nuclei count read?
**A.** Its nuclei count is 97.7 ± 5.6.

**Q.** With `CCCN(C/C=C/I)C1CCc2ccc(O)cc2C1` (centres undefined) [7-Hydroxy-PIPAT maleate] as the molecule, how does the nuclei count read?
**A.** The nuclei count was 98.3.

**Q.** How did the nuclei count turn out when `CC(=O)OC1CN2CCC1CC2` (centres undefined) [Aceclidine Hydrochloride] was run?
**A.** Its nuclei count is 99.4.

**Q.** With `NC1(c2ccccc2Cl)CCCCC1=O` (centres undefined) [Norketamine hydrochloride] as the molecule, how does the nuclei count read?
**A.** Its nuclei count is 100.

**Q.** With `O=C1NC(=O)c2c1c1c3ccccc3[nH]c1c1[nH]c3ccccc3c21` [Arcyriaflavin A] as the molecule, how does the nuclei count read?
**A.** Its nuclei count is 86.4.

**Q.** How did the nuclei count turn out when `COc1cccc(C2(O)CCCCC2CN(C)C)c1` (centres undefined) [Tramadol hydrochloride] was run?
**A.** The nuclei count was 107.

**Q.** For `CC(CCc1ccccc1)NC(C)C(O)c1ccc(O)cc1` (centres undefined) [Nylidrin], which nuclei count is on record?
**A.** The nuclei count was 112.

**Q.** Which nuclei count does the source give for `C[N+]1(C)[C@@H]2CC[C@H]1C[C@@H](OC(=O)C(CO)c1ccccc1)C2` (some centres undefined) [Methylatropine nitrate] here?
**A.** Its nuclei count is 102.

**Q.** With `CN1C[C@H](C(=O)N[C@]2(C)O[C@@]3(O)[C@@H]4CCCN4C(=O)[C@H](Cc4ccccc4)N3C2=O)C[C@@H]2c3cccc4[nH]cc(c34)C[C@H]21` [Dihydroergotamine mesylate] as the molecule, how does the nuclei count read?
**A.** The nuclei count was 108.

**Q.** With `CN1C[C@H](C(=O)N[C@]2(C)O[C@@]3(O)[C@@H]4CCCN4C(=O)[C@H](Cc4ccccc4)N3C2=O)C[C@@H]2c3cccc4[nH]cc(c34)C[C@H]21` [Dihydroergotamine tartrate] as the molecule, how does the nuclei count read?
**A.** Its nuclei count is 102.

**Q.** `O=C1NCN(c2ccccc2)C12CCN(CC1COc3ccccc3O1)CC2` (centres undefined) [Spiroxatrine] was tested. Which nuclei count did it give?
**A.** The nuclei count was 83.5.

**Q.** `C[N+](C)(C)CCCCCCCCCC[N+](C)(C)C` [Decamethonium bromide] was tested. Which nuclei count did it give?
**A.** Its nuclei count is 104.

**Q.** With `c1ccc2nc(N3CCNCC3)ccc2c1` [Quipazine dimaleate salt] as the molecule, how does the nuclei count read?
**A.** Its nuclei count is 98.6.

**Q.** With `c1ccc2nc(N3CCNCC3)ccc2c1` [Quipazine dimaleate] as the molecule, how does the nuclei count read?
**A.** The nuclei count was 90.8.

**Q.** How did the nuclei count turn out when `CCC(=O)O[C@@](Cc1ccccc1)(c1ccccc1)[C@@H](C)CN(C)C` [Levopropoxyphene napsylate] was run?
**A.** Its nuclei count is 106.

**Q.** For `CN1CCN(c2ccc([N+](=O)[O-])c3no[n+]([O-])c23)CC1`, which nuclei count is on record?
**A.** The nuclei count was 96.9.

**Q.** With `CN1c2ccccc2C(NCCCCCCC(=O)O)c2ccc(Cl)cc2S1(=O)=O` (centres undefined) [Tianeptine sodium] as the molecule, how does the nuclei count read?
**A.** Its nuclei count is 103.

**Q.** How did the nuclei count turn out when `CN1c2ccccc2C(NCCCCCCC(=O)O)c2ccc(Cl)cc2S1(=O)=O` (centres undefined) [Tianeptine] was run?
**A.** The nuclei count was 103.

**Q.** How did the nuclei count turn out when `CC(C)C[C@@H](N)C1(c2ccc(Cl)cc2)CCC1` was run?
**A.** Its nuclei count is 94.

**Q.** For `CC[C@@]1(O)C(=O)OCc2c1cc1n(c2=O)Cc2cc3ccccc3nc2-1` [Camptothecine (S,+)], which nuclei count is on record?
**A.** The nuclei count was 39.8.

**Q.** For `CC[C@@]1(O)C(=O)OCc2c1cc1n(c2=O)Cc2cc3ccccc3nc2-1` [Camptothecin], which nuclei count is on record?
**A.** The nuclei count was 31.2.

**Q.** For `CO/C1=C\C(C)=C\[C@@H](C)[C@@H](O)[C@@H](C)C/C(C)=C/C=C/[C@H](OC)[C@@H]([C@@H](C)[C@@H](O)[C@H](C)[C@@]2(O)C[C@@H](O)[C@H](C)[C@@H](C(C)C)O2)OC1=O` [Bafilomycin A1], which nuclei count is on record?
**A.** The nuclei count was 79.2 ± 6.1.

**Q.** How did the nuclei count turn out when `N#Cc1nn(-c2c(Cl)cc(C(F)(F)F)cc2Cl)c(N)c1[S+]([O-])C(F)(F)F` (centres undefined) [Fipronil] was run?
**A.** Its nuclei count is 92.8.

**Q.** For `CC[N+](CC)(CCCNC1=CC(=O)C(NCCC[N+](CC)(CC)Cc2ccccc2)=CC1=O)Cc1ccccc1` [Benzoquinonium dibromide], which nuclei count is on record?
**A.** Its nuclei count is 91.

**Q.** How did the nuclei count turn out when `C[N+]1(C)CCc2cc3c(cc2C1C1OC(=O)c2c1ccc1c2OCO1)OCO3` (single isomer, unassigned; (-)) [(-)-Bicuculline methobromide] was run?
**A.** Its nuclei count is 92.1.

**Q.** For `C[C@H]1CCC/C=C/[C@@H]2C[C@H](O)C[C@H]2[C@H](O)/C=C/C(=O)O1` [Brefeldin A], which nuclei count is on record?
**A.** The nuclei count was 57.5 ± 2.

**Q.** How did the nuclei count turn out when `CC1=C(O)C(=O)C=C2C1=CC=C1[C@@]2(C)CC[C@@]2(C)[C@@H]3C[C@](C)(C(=O)O)CC[C@]3(C)CC[C@]12C` [Celastrol] was run?
**A.** The nuclei count was 18.9.

**Q.** `CC(=O)Oc1ccc(/C=C/c2cc(OC(C)=O)cc(OC(C)=O)c2)cc1` [Triacetylresveratrol] was tested. Which nuclei count did it give?
**A.** Its nuclei count is 73.1.

**Q.** For `CCC(C)C1O[C@]2(C=C[C@@H]1C)C[C@@H]1CC(C/C=C(\C)[C@@H](OC3C[C@H](OC)[C@@H](OC4C[C@H](OC)[C@@H](O)[C@H](C)O4)[C@H](C)O3)[C@@H](C)/C=C/C=C3\COC4[C@H](O)C(C)=CC(C(=O)O1)[C@]34O)O2` (some centres undefined) [Avermectin B1a], which nuclei count is on record?
**A.** Its nuclei count is 101.

**Q.** `c1cc(Cc2cnc[nH]2)ccn1` [Immethridine dihydrobromide] was tested. Which nuclei count did it give?
**A.** The nuclei count was 92.3.

**Q.** How did the nuclei count turn out when `Oc1ccc2c3c1O[C@H]1c4[nH]c5c(c4C[C@@]4(O)[C@@H](C2)N(CC2CC2)CC[C@]314)C[C@@]1(O)[C@H]2Cc3ccc(O)c4c3[C@@]1(CCN2CC1CC1)[C@H]5O4` [nor-Binaltorphimine dihydrochloride] was run?
**A.** Its nuclei count is 99.1.

**Q.** `N.N.[Cl][Pt][Cl]` [Cisplatin] was tested. Which nuclei count did it give?
**A.** The nuclei count was 96.2.

**Q.** With `OC1CCCCC1N1CCC(c2ccccc2)CC1` (racemic) [(±)-Vesamicol hydrochloride] as the molecule, how does the nuclei count read?
**A.** Its nuclei count is 99.5.

**Q.** `CCCN1C[C@H](CSC)C[C@@H]2c3cccc4[nH]cc(c34)C[C@H]21` [Pergolide mesylate] was tested. Which nuclei count did it give?
**A.** The nuclei count was 95.5 ± 5.6.

**Q.** With `O=C1/C(=C/c2ccccc2)C[C@@]2(O)[C@H]3Cc4ccc(O)c5c4[C@@]2(CCN3CC2CC2)[C@H]1O5` [BNTX maleate] as the molecule, how does the nuclei count read?
**A.** Its nuclei count is 3.38.

**Q.** With `COc1ccc(C(=O)N2CCCC2=O)cc1` [Aniracetam] as the molecule, how does the nuclei count read?
**A.** Its nuclei count is 96.1 ± 10.

**Q.** How did the nuclei count turn out when `Cc1ncc(CN2CC=C(c3ccccc3)CC2)c(N)n1` was run?
**A.** Its nuclei count is 99.5.

**Q.** With `Cc1[nH]c2ccc(O)cc2c1CCN` [2-Methyl-5-hydroxytryptamine hydrochloride] as the molecule, how does the nuclei count read?
**A.** The nuclei count was 96.7.

**Q.** Which nuclei count does the source give for `CC(C(=O)OC1CC2CCC(C1)N2C)c1ccc(Br)cc1` (centres undefined) [PG-9 maleate] here?
**A.** Its nuclei count is 98.8.

**Q.** Which nuclei count does the source give for `O=C(O[C@H]1C[C@H]2CC[C@@H](C1)[N+]21CCCC1)C(O)(c1ccccc1)c1ccccc1` [Trospium chloride (Sanctura)] here?
**A.** The nuclei count was 99.6.

**Q.** For `CC1(C)CCCC(C)(C)N1[O]`, which nuclei count is on record?
**A.** The nuclei count was 91.7.

**Q.** With `CC[C@@H](C(N)=O)N1CCCC1=O` [Levetiracetam] as the molecule, how does the nuclei count read?
**A.** Its nuclei count is 103.

**Q.** How did the nuclei count turn out when `NCC(CS(=O)(=O)O)c1ccc(Cl)cc1` (centres undefined) [Saclofen] was run?
**A.** The nuclei count was 108.
